Reference: the supplement of paper PMC9151546
Most values come without repeats; read them as rough.

Assays:
CHO-K1 [1] = assay: micronucleus frequency (% of nucleated events); higher = more micronuclei (genotoxic)
CHO-K1 [2] = assay: hypodiploid nuclei frequency (% of nucleated events); higher = more hypodiploid events (aneugenic)
Method: (§1)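 Flow-cytometric in vitro micronucleus assay (Litron MicroFlow) in CHO-K1 cells in 96-well plates, 19 concentrations (4.5-200 µM, n=1 per concentration). Without S9, cells were exposed for 24 h and sampled at 48 h. With Aroclor 1254-induced rat liver S9, cells were exposed for 3-4 h and sampled at 27-28 h. Read-outs are %MN and %hypodiploid nuclei relative to nucleated events, and relative survival as the nuclei-to-bead ratio versus the 1% DMSO vehicle control (x100).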

CHO-K1 [3] = assay: relative survival (nuclei to bead ratio vs DMSO control) (% of vehicle control); higher = more surviving cells
Method: as §1
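For hypodiploid nuclei frequency (% of nucleated events) in this document: hypodiploid nuclei gated on a flow cytometer with 488 nm excitation after SYTOX Green staining, cultures at 37 °C, positive controls vinblastine without S9 and cyclophosphamide with S9.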
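For micronucleus frequency (% of nucleated events) in this document: cells lysed with nuclei stained by SYTOX Green, then micronucleus-gated events counted against nucleated events by flow cytometry with 488 nm excitation.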
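For relative survival (nuclei to bead ratio vs DMSO control) in this document: Lysed-cell nuclei stained with SYTOX Green and counted against counting beads by flow cytometry at 488 nm excitation, with vinblastine (no S9) and cyclophosphamide (plus S9) as positive controls.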

CCCCN(CCCC)N=O [N-Nitrosodibutylamine]
Conditions | hypodiploid nuclei frequency, CHO-K1 [2] [%] | micronucleus frequency, CHO-K1 [1] [%] | relative survival, CHO-K1 [3]
concentration: 4.5 (µM), S9 metabolic activation: with S9, exposure time: 3-4 hours | 0.38 | 1 | 119
concentration: 4.5 (µM), S9 metabolic activation: without S9, exposure time: 24 hours | 1.12 | 1.02 | 81.5
concentration: 5.63 (µM), S9 metabolic activation: with S9, exposure time: 3-4 hours | 0.36 | 1.96 | 117
concentration: 5.63 (µM), S9 metabolic activation: without S9, exposure time: 24 hours | 1.58 | 1.76 | 72.7
concentration: 7.04 (µM), S9 metabolic activation: with S9, exposure time: 3-4 hours | 0.26 | 1.24 | 103
concentration: 7.04 (µM), S9 metabolic activation: without S9, exposure time: 24 hours | 1.02 | 1.58 | 75.1
concentration: 8.8 (µM), S9 metabolic activation: with S9, exposure time: 3-4 hours | 0.36 | 1.5 | 105
concentration: 8.8 (µM), S9 metabolic activation: without S9, exposure time: 24 hours | 0.98 | 2.04 | 75.8
concentration: 11 (µM), S9 metabolic activation: with S9, exposure time: 3-4 hours | 0.26 | 1.12 | 90.2
concentration: 11 (µM), S9 metabolic activation: without S9, exposure time: 24 hours | 0.86 | 2.4 | 86.2
concentration: 13.7 (µM), S9 metabolic activation: with S9, exposure time: 3-4 hours | 0.3 | 1.28 | 94.1
concentration: 13.7 (µM), S9 metabolic activation: without S9, exposure time: 24 hours | 0.7 | 1.58 | 78.4
concentration: 17.2 (µM), S9 metabolic activation: with S9, exposure time: 3-4 hours | 0.24 | 1.16 | 97
concentration: 17.2 (µM), S9 metabolic activation: without S9, exposure time: 24 hours | 0.98 | 1.92 | 79
concentration: 21.5 (µM), S9 metabolic activation: with S9, exposure time: 3-4 hours | 0.24 | 2.36 | 93.3
concentration: 21.5 (µM), S9 metabolic activation: without S9, exposure time: 24 hours | 0.66 | 1.84 | 75.6
concentration: 26.8 (µM), S9 metabolic activation: with S9, exposure time: 3-4 hours | 0.26 | 1.06 | 124
concentration: 26.8 (µM), S9 metabolic activation: without S9, exposure time: 24 hours | 0.6 | 1.06 | 96.8
concentration: 33.6 (µM), S9 metabolic activation: with S9, exposure time: 3-4 hours | 0.34 | 1.56 | 112
concentration: 33.6 (µM), S9 metabolic activation: without S9, exposure time: 24 hours | 5.5 | 1.12 | 81.5
concentration: 41.9 (µM), S9 metabolic activation: with S9, exposure time: 3-4 hours | 0.26 | 1.54 | 146
concentration: 41.9 (µM), S9 metabolic activation: without S9, exposure time: 24 hours | 1.1 | 1.1 | 88.8
concentration: 52.4 (µM), S9 metabolic activation: with S9, exposure time: 3-4 hours | 0.38 | 2 | 120
concentration: 52.4 (µM), S9 metabolic activation: without S9, exposure time: 24 hours | 0.84 | 0.94 | 88.8
concentration: 65.5 (µM), S9 metabolic activation: with S9, exposure time: 3-4 hours | 0.32 | 1.62 | 127
concentration: 65.5 (µM), S9 metabolic activation: without S9, exposure time: 24 hours | 1.18 | 1.68 | 97.2
concentration: 81.9 (µM), S9 metabolic activation: with S9, exposure time: 3-4 hours | 0.2 | 1.78 | 120
concentration: 81.9 (µM), S9 metabolic activation: without S9, exposure time: 24 hours | 1.06 | 1.94 | 80.9
concentration: 102 (µM), S9 metabolic activation: with S9, exposure time: 3-4 hours | 0.34 | 2.06 | 105
concentration: 102 (µM), S9 metabolic activation: without S9, exposure time: 24 hours | 1.58 | 2.28 | 77.9
concentration: 128 (µM), S9 metabolic activation: with S9, exposure time: 3-4 hours | 0.32 | 2.22 | 96.6
concentration: 128 (µM), S9 metabolic activation: without S9, exposure time: 24 hours | 1.4 | 1.84 | 84.2
concentration: 160 (µM), S9 metabolic activation: with S9, exposure time: 3-4 hours | 0.3 | 2.16 | 108
concentration: 160 (µM), S9 metabolic activation: without S9, exposure time: 24 hours | 1.2 | 1.9 | 83.3
concentration: 200 (µM), S9 metabolic activation: with S9, exposure time: 3-4 hours | 0.42 | 3.14 | 108
concentration: 200 (µM), S9 metabolic activation: without S9, exposure time: 24 hours | 1.78 | 2.52 | 77.1
